Hit rate of the full screen: of about 310,000 compounds, about 2,200 (0.71%) showed an effect of 50% or more. The effect is printed as a negative number. The list shows a part of the results.
Target: human ether-à-go-go-related gene (hERG) potassium channel (human, UniProt Q12809)
Assay: primary screen, population patch clamp on CHO cells stably expressing hERG

Sequence of human ether-à-go-go-related gene (hERG) potassium channel (Q12809 whole entry, looked up): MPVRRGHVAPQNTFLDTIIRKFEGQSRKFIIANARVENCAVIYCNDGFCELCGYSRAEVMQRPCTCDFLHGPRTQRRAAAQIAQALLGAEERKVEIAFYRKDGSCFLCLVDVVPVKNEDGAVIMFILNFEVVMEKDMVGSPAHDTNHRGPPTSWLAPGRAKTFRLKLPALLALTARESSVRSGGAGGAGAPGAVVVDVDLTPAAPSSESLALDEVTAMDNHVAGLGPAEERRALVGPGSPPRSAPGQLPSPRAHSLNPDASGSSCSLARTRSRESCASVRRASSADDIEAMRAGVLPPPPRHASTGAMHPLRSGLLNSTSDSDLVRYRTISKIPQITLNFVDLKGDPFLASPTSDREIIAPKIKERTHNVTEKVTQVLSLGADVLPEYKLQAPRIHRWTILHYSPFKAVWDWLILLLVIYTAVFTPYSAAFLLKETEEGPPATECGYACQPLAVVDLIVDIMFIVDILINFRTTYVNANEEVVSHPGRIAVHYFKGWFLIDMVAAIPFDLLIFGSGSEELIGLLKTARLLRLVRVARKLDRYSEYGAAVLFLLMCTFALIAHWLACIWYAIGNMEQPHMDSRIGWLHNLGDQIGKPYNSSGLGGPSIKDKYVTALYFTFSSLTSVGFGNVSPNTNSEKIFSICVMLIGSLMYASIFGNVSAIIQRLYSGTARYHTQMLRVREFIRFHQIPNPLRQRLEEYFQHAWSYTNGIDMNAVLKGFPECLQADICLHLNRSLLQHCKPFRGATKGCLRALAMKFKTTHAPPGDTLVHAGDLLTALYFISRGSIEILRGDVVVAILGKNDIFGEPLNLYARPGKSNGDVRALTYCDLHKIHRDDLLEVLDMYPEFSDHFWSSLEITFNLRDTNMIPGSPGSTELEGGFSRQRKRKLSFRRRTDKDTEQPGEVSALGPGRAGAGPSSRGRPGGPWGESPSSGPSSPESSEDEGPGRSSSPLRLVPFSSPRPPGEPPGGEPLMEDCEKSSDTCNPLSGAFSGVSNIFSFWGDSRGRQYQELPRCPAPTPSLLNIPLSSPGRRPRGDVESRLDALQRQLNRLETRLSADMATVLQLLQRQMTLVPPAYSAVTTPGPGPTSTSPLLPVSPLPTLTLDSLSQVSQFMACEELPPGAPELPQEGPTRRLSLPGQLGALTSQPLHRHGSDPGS

Row | SMILES | hERG current change (%, negative = inhibition) at 1uM [%]
1 | Cc1ccccc1OCC(=O)Nc1ccc2[nH]ncc2c1 | 9.13
2 | CN1C(=O)c2ccc(C(=O)NCc3ccc4c(c3)OCO4)cc2C1=O | 5.56
3 | CCOc1ccc(CCNC(=O)C2CC(C)=CCC2C(=O)O)cc1OCC (stereo not drawn) | 20.8
4 | COc1ccc(C(C(=O)NCC2CCCO2)N(C(=O)Cn2nnc3ccccc32)c2ccc(NC(C)=O)cc2)cc1OC (stereo not drawn) | 17.4
5 | Cc1cc(C)c(S(=O)(=O)N2CCCC(C(=O)N3CCOCC3)C2)c(C)c1 (stereo not drawn) | 13.1
6 | CCOC(=O)Cc1cc(=O)n2[nH]cc(-c3cccc(Br)c3)c2n1 | 23.7
7 | CCOc1ccccc1NS(=O)(=O)c1ccc2[nH]c(=O)ccc2c1 | 3.38
8 | COc1ccccc1C(=O)Nc1ccc(S(=O)(=O)N(C)c2ccccc2)cc1 | 11
9 | CCCCCc1ccc(CC(=O)Nn2c(C)nc3ccccc3c2=O)cc1 | -5.15
10 | CC12CC3CC(C)(C1)CC(C(=O)N1CCN(C(=O)C4CCCO4)CC1)(C3)C2 (stereo not drawn) | 15.8
11 | N/C(=N\OC(=O)c1ccc(Cl)cc1)c1nonc1N | 16.8
12 | CCN1CCN(C(=O)c2ccc3c(c2)N(Cc2ccccc2)C(=O)c2ccccc2S3(=O)=O)CC1 | 9.06
13 | CCOC(=O)c1c(NC(=O)CSc2ncn[nH]2)sc(C(=O)NC)c1C | -2.11
14 | CCOc1cc(C(=O)NCC(=O)N/N=C/c2sccc2C)cc(OCC)c1OCC | 5.49
15 | Cc1cc(NS(=O)(=O)c2ccc(NC(=O)Nc3ccccc3)cc2)no1 | -0.609
16 | c1ncn(C23CC4CC(CC(C4)C2)C3)n1 | 16
17 | CCN(CC)CCNC(=O)c1ccc2c(=O)n(C3CCCC3)c(=S)[nH]c2c1 | -3.59
18 | O=C(COC(=O)c1ccc(S(=O)(=O)NCc2ccco2)cc1)NC1CCCCCC1 | 11.1
19 | O=C(c1ccccc1[N+](=O)[O-])N1CCC2(CC1)OCCO2 | 11.9
20 | Cc1cccc(C(=O)O/N=C(/c2ccccc2)c2ccncc2)c1 | 9.4
21 | O=C(CSc1cccc[n+]1[O-])Nc1cc(S(=O)(=O)N2CCOCC2)ccc1N1CCOCC1 | 14.1

Row | SMILES | hERG current change (%, negative = inhibition) at 1uM [%]
22 | CCC(=O)N1CCN(c2ccccc2NC(=O)COc2ccc(C(C)C)cc2)CC1 | -0.267
23 | CCCOc1ccc(OCCNC2CCCC2)cc1 | -2.94
24 | C=C1CCN([C@@H](CC(C)C)C(=O)NCc2cc(OC)c(OC)c(OC)c2)S(=O)(=O)c2ccccc21 | 13.9
25 | Cc1ccc(NS(=O)(=O)c2c(C(=O)N3CCOCC3)c(C)n(C)c2C)cc1 | 14.8
26 | COc1ccc(C2=NOC(C(=O)Nc3cc(C)on3)C2)cc1 (stereo not drawn) | 4.59
27 | COc1ccc(OC)c(-n2c(SCC(=O)NCc3ccco3)nnc2-c2c[nH]c3ccccc23)c1 | 5.16
28 | O=C1C2Sc3[nH]c(=O)sc3C(c3ccccc3)C2C(=O)N1c1ccccc1 (stereo not drawn) | -4.02
29 | CCc1ccc(-c2nc(NC(=O)c3ccc(OCC(=O)Nc4ccc(F)cc4)c(OC)c3)sc2C)cc1 | 3.65
30 | CN(Cc1ccccc1)C(=O)c1nc2ccccn2c1CN1CCc2sccc2C1 | -1.49
31 | Cc1cc(C)n(C2CC(=O)N(c3ccc(Cl)c(Cl)c3)C2=O)n1 (stereo not drawn) | 9.03
32 | COc1ccc(Cc2noc(CN(C)CC(O)c3ccccc3)n2)cc1OC (stereo not drawn) | 10.3
33 | COc1ccc(CCNC(=O)COC(=O)c2ccco2)cc1OC | 20.4
34 | C=CCn1cc(C(=O)N2CCc3ccccc3C2)c(=O)c2cc(S(=O)(=O)N(CC)CC)ccc21 | -5.88
35 | COc1cccc(NC(=O)[C@@H]2CCC(=O)N2C2OC(=O)c3ccccc32)c1 (stereo partly drawn) | 9.92
36 | COc1cccc(N2CCN(C(=O)c3ccccc3SCC(=O)NCc3ccco3)CC2)c1 | 11.1
37 | CCn1c(SCC(=O)Nc2ccccc2C(=O)OC)nnc1-c1cccc(C)c1 | -12.2
38 | OC1CCN(Cc2cn(Cc3ccccc3)nc2-c2cc3ccccc3o2)CC1 | -18.4
39 | CCOC(=O)Cc1csc(NC(=O)COc2ccc3c(c2)CCC3)n1 | 10.9
40 | Cn1c(CC(=O)Nc2ccccc2F)nnc1SCC(=O)N1CCOCC1 | 5.22
41 | N/C(=N\OC(=O)c1ccc2ccccc2c1)c1ccccn1 | 17.8
42 | Cc1ccc(NC(=O)C2CSC3(C)CCC(=O)N23)cc1S(=O)(=O)N1CCOCC1 (stereo not drawn) | 12.2

Row | SMILES | hERG current change (%, negative = inhibition) at 1uM [%]
43 | COCc1nc(-c2cc(Br)ccc2OC)no1 | -1.29
44 | O=C(O)C1CSC(c2coc3ccccc3c2=O)N1 (stereo not drawn) | 12.7
45 | Cc1cccc(C(C(=O)NC2CCCCC2)N(Cc2cccnc2)C(=O)c2csnn2)c1 (stereo not drawn) | 2.52
46 | Cc1cnc(NC(=O)CSc2ncn(-c3ccccc3)n2)s1 | -1.75
47 | COc1ccc(C2=NS(=O)(=O)N(C)C(C(=O)NCc3cccs3)=C2)cc1OC | -9.42
48 | Cc1ccc(CNC(=O)C2CCCN2S(=O)(=O)c2ccc(F)cc2)cc1 (stereo not drawn) | 13.4
49 | CCOC(=O)c1ccc(N2C(=O)CC(C3CCCO3)C2=O)cc1 (stereo not drawn) | 1.92
50 | CC1CCC(NC(=O)C2CCC(CNS(=O)(=O)c3ccccc3)CC2)CC1 (stereo not drawn) | 15.5
51 | CNc1ccccc1C(C)(C)c1cc(-c2ccco2)n[nH]1 | 2.35
52 | COc1cc(Cl)c(C)cc1NC(=O)CC1CCCC1 | 8.04
53 | CS(=O)(=O)c1ccc(-c2cccc(NC(=O)COc3ccc(Cl)cc3)c2)nn1 | 10.7
54 | Cc1ccc(S(=O)(=O)N2CCC(C(=O)OCC(=O)N(C)C3CCCCC3)CC2)cc1C | 17.9
55 | O=C(Nc1ccc(F)cc1)C1C(c2ccccc2)C1(Cl)Cl (stereo not drawn) | 9.41
56 | CS(=O)(=O)Nc1ccc(C2=NN(C(=O)C3CCCCC3)C(c3cccs3)C2)cc1 (stereo not drawn) | 0.239
57 | CCOc1cc(C2C(C(=O)OC(C)C)=C(C)NC3=C2C(=O)CCC3)cc([N+](=O)[O-])c1O (stereo not drawn) | 17.7
58 | Cc1ccc2nc(N(CCN(C)C)C(=O)c3ccc4ccccc4c3)sc2c1.Cl | 15.2
59 | CCOC(=O)CC(NS(=O)(=O)Cc1ccccc1)c1ccc(C)cc1 (stereo not drawn) | 6.98
60 | CC(OC(=O)c1ccc(Cl)nc1)C(=O)N1CCc2ccccc21 (stereo not drawn) | 9.88
61 | CCOc1ccc(NC(=O)[C@H](C)NC(=O)C2CC(=O)N(c3ccc(OC)cc3)C2)cc1 (stereo partly drawn) | 11.4
62 | O=C(NCCc1ccccc1)C1CC(c2ccccc2O)=NO1 (stereo not drawn) | -4.71
63 | CCN1CCN(C(=O)C(N)Cc2ccccc2)CC1 (stereo not drawn) | 15.1

Row | SMILES | hERG current change (%, negative = inhibition) at 1uM [%]
64 | O=C(COc1ccc2ccc(=O)oc2c1)Nc1cc([N+](=O)[O-])ccc1F | 4.05
65 | CN1CCN(c2ccc(NC(=O)C(C)(C)C)cc2)CC1 | 13.6
66 | O=S(=O)(Nc1ccc2nc(-c3ccco3)[nH]c2c1)c1ccccc1 | 3.11
67 | Cc1ccc2nc(COc3ccc(N(C)S(=O)(=O)c4ccccc4)cc3)cc(=O)n2c1 | -35.8
68 | CCSc1nc(N)c(NC(=O)c2ccc(Br)o2)c(=O)[nH]1 | 6.68
69 | CN(C)CCNC(=O)Cn1c(=O)c2cccn2c2ccc(F)cc21 | 11.8
70 | O=C(CSc1nnc(NC(=O)c2ccc(S(=O)(=O)N3CCOCC3)cc2)s1)Nc1ccccc1C(F)(F)F | 19.3
71 | COc1ccc(C(=O)N(Cc2ccccc2)Cc2cc3cc4c(cc3[nH]c2=O)OCCO4)cc1 | -1.77
72 | CC(NC(=O)CCC(=O)c1cccs1)c1ccccc1 (stereo not drawn) | 14.1
73 | Cc1cccc(C)c1NC(=O)N1CCC(n2cnc3ccccc32)CC1 | 12.2
74 | COc1ccc(N2CCN(S(=O)(=O)CCNC(=O)c3cccs3)CC2)cc1 | 12.4
75 | Cc1ccc2cc(CN(c3ccccc3C)S(=O)(=O)c3ccccc3)c(=O)[nH]c2c1 | 10.6
76 | O=C(NC(=S)Nc1nc2c(ccc3ccccc32)s1)c1cccs1 | 12
77 | Cc1nn(-c2ccccc2)c2nc(-c3ccco3)cc(C(=O)O)c12 | 6.92
78 | Cn1c(N)c(C(=O)CSc2nnc(C3CC3)n2-c2ccccc2)c(=O)n(C)c1=O | -4.35
79 | CC1CN(C(=O)Nc2cccc(Cl)c2)C2(CCCCCC2)O1 (stereo not drawn) | 10.9
80 | Fc1ccc(C2NCCc3[nH]cnc32)cc1 (stereo not drawn) | 17.6
81 | Cc1ccc2nc(C3CCCN(C(=O)NCc4ccccc4)C3)[nH]c2c1 (stereo not drawn) | 1.19
82 | CCOc1ccc(OCC)c(-c2c(=O)n(OCc3ccc(C(C)(C)C)cc3)c3ccccc3[n+]2[O-])c1 | 21.5
83 | C#CCOCCOCCOCCNc1nc(N2CCN(C(=O)[C@H]([C@@H](C)CC)n3cc([C@@H](N)Cc4ccc(O)cc4)nn3)CC2)nc(N2CCN(C(=O)[C@H]([C@@H](C)CC)n3cc([C@@H](N)CC(C)C)nn3)CC2)n1.Cl | -3.16
84 | COc1ccc2cc(CCNC(=O)c3cc4ccccc4o3)c(=O)[nH]c2c1 | 5.36
